This note sets out measurements from the supplement of paper PMC12217912.

Sequences and labels used below:
B1: TEV protease; numbered along this chain (parent)
chain: MGESLFKGPRDYNPISSSICHLTNESDGHTTSLYGIGFGPFIITNKHLFRRNNGTLVVQSLHGVFKVKDTTTLQQHLVDGRDMIIIRMPKDFPPFPQKLKFREPQREERICLVTTNFQTKSMSSMVSDTSCTFPSGDGIFWKHWIQTKDGQCGSPLVSTRDGFIVGIHSASNFTNTNNYFTSVPKNFMELLTNQEAQQWVSGWRLNADSVLWGGHKVFMVKPEEPFQPVKEATQL

Some of the results follow. Sequences were assembled here from the parent chain. Inactive controls read about 0.05.

In the experiment the parent is B1. In words: raw area under fraction-flipped curve 0-4 h after induction (AUC4h, not background-subtracted), DNA-recorder readout of cleavage of the substrate (dimensionless); higher = more cleavage of the substrate by the protease variant. The conditions noted are these: temperature: 34 °C; time window: 0-4 h after rhamnose induction. As to the method: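 In vivo DNA recorder in E. coli TOP10(DE3) ΔrhaA at 34 °C. Each TEVp single-site mutant (parent TEVp 0) is paired with a single-site variant of the 7-mer TEVs (canonical ENLYFQ|S). The substrate sits between flexible linkers in a Bxb1-sfGFP-TEVs-SsrA fusion, so cleavage stabilises Bxb1 and speeds flipping of a recombination array, read by NGS. The value is the raw area under the fraction-flipped curve over 0-4 h after rhamnose induction (AUC4h), with ≥20 reads per time point. It is not background-subtracted; inactive controls average about 0.047.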
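Further: Bxb1 expression induced with 0.2% (w/v) L-rhamnose at OD600 near 0.5, cultures sampled hourly, flipped fraction per protease–substrate barcode pair counted by paired-end Illumina sequencing.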

Turning to MGESLFKGPRDYNPISSSICHLTNESDGHTTSLYGIGFGPFIITNKHLFPRNNGTLVVQSLHGVFKVKDTTTLQQHLVDGRDMIIIRMPKDFPPFPQKLKFREPQREERICLVTTNFQTKSMSSMVSDTSCTFPSGDGIFWKHWIQTKDGQCGSPLVSTRDGFIVGIHSASNFTNTNNYFTSVPKNFMELLTNQEAQQWVSGWRLNADSVLWGGHKVFMVKPEEPFQPVKEATQL [R50P], the “area with substrate ENLYAQS” value stood at 0.0675, the “area with substrate ENLYCQS” value came to 0.0757, the “area with substrate ENLYDQS” value stood at 0.0668 and the “area with substrate ENLYEQS” value was determined as 0.055. For the same variant, the “area with substrate ENLYGQS” value turned out to be 0.0665, the “area with substrate ENLYHQS” value worked out at 0.0543, the “area with substrate ENLYIQS” value was 0.0965 and the “area with substrate ENLYKQS” value amounted to 0.0583. The “area with substrate ENLYMQS” value was determined as 0.068, the “area with substrate ENLYNQS” value worked out at 0.0673, the “area with substrate ENLYPQS” value amounted to 0.0657 and the “area with substrate ENLYQQS” value was determined as 0.0658. For the same variant, the “area with substrate ENLYRQS” value turned out to be 0.0062, the “area with substrate ENLYTQS” value was 0.0611, the “area with substrate ENLYVQS” value was determined as 0.135 and the “area with substrate ENLYWQS” value stood at 0.0714. The “area with substrate ENLYYQS” value was found to be 0.0609.
On to MGESLFKGPRDYNPISSSICHLTNESDGHTTSLYGIGFGPFIITNKHLFHRNNGTLVVQSLHGVFKVKDTTTLQQHLVDGRDMIIIRMPKDFPPFPQKLKFREPQREERICLVTTNFQTKSMSSMVSDTSCTFPSGDGIFWKHWIQTKDGQCGSPLVSTRDGFIVGIHSASNFTNTNNYFTSVPKNFMELLTNQEAQQWVSGWRLNADSVLWGGHKVFMVKPEEPFQPVKEATQL [R50H], for which the “area with substrate ENLYAQS” value stood at 0.0536, the “area with substrate ENLYDQS” value came out at 0.0569, the “area with substrate ENLYEQS” value was found to be 0.0679 and the “area with substrate ENLYHQS” value was found to be 0.0582. Besides, the “area with substrate ENLYKQS” value was 0.0514, the “area with substrate ENLYLQS” value was found to be 0.0814, the “area with substrate ENLYMQS” value worked out at 0.106 and the “area with substrate ENLYPQS” value was determined as 0.0762. The “area with substrate ENLYRQS” value worked out at 0.0673, the “area with substrate ENLYTQS” value is 0.0887 and the “area with substrate ENLYWQS” value turned out to be 0.117.
As for MGESLFKGPRDYNPISSSICHLTNESDGHTTSLYGIGFGPFFITNKHLFRRNNGTLVVQSLHGVFKVKDTTTLQQHLVDGRDMIIIRMPKDFPPFPQKLKFREPQREERICLVTTNFQTKSMSSMVSDTSCTFPSGDGIFWKHWIQTKDGQCGSPLVSTRDGFIVGIHSASNFTNTNNYFTSVPKNFMELLTNQEAQQWVSGWRLNADSVLWGGHKVFMVKPEEPFQPVKEATQL [I42F], the “area with substrate ENLYAQS” value turned out to be 0.0237, the “area with substrate ENLYCQS” value is 0.0637, the “area with substrate ENLYDQS” value worked out at 0.0463 and the “area with substrate ENLYEQS” value amounted to 0.058. For the same variant, the “area with substrate ENLYGQS” value was 0.0592, the “area with substrate ENLYHQS” value was determined as 0.0543, the “area with substrate ENLYIQS” value was 0.0753 and the “area with substrate ENLYKQS” value is 0.0345. Besides, the “area with substrate ENLYMQS” value stood at 0.0673, the “area with substrate ENLYNQS” value worked out at 0.0533, the “area with substrate ENLYQQS” value is 0.0504 and the “area with substrate ENLYRQS” value is 0.0582. Moreover, the “area with substrate ENLYSQS” value was 0.0607, the “area with substrate ENLYVQS” value was determined as 0.0692 and the “area with substrate ENLYWQS” value was 0.0674.
For the variant MGESLFKGPRDYNPISSSICHLTNESDGHTTSLYGIGFGPFRITNKHLFRRNNGTLVVQSLHGVFKVKDTTTLQQHLVDGRDMIIIRMPKDFPPFPQKLKFREPQREERICLVTTNFQTKSMSSMVSDTSCTFPSGDGIFWKHWIQTKDGQCGSPLVSTRDGFIVGIHSASNFTNTNNYFTSVPKNFMELLTNQEAQQWVSGWRLNADSVLWGGHKVFMVKPEEPFQPVKEATQL [I42R], the “area with substrate ENLYAQS” value amounted to 0.0476, the “area with substrate ENLYCQS” value came to 0.0306, the “area with substrate ENLYDQS” value was determined as 0.0492 and the “area with substrate ENLYEQS” value came to 0.0458. The “area with substrate ENLYGQS” value is 0.0344, the “area with substrate ENLYHQS” value stood at 0.0496, the “area with substrate ENLYIQS” value stood at 0.044 and the “area with substrate ENLYKQS” value turned out to be 0.0429. The “area with substrate ENLYLQS” value came out at 0.0474, the “area with substrate ENLYMQS” value is 0.0477, the “area with substrate ENLYNQS” value turned out to be 0.0534 and the “area with substrate ENLYPQS” value came out at 0.0471. Also, the “area with substrate ENLYQQS” value worked out at 0.0552, the “area with substrate ENLYRQS” value came out at 0.0497, the “area with substrate ENLYSQS” value stood at 0.0722 and the “area with substrate ENLYTQS” value was found to be 0.0456. Moreover, the “area with substrate ENLYVQS” value worked out at 0.0577, the “area with substrate ENLYWQS” value was determined as 0.043 and the “area with substrate ENLYYQS” value stood at 0.0441.
For the variant MGESLFKGPRDYNPISSSICHLTNESDGHTTSLYGIGFGPFIITNKHLFRRCNGTLVVQSLHGVFKVKDTTTLQQHLVDGRDMIIIRMPKDFPPFPQKLKFREPQREERICLVTTNFQTKSMSSMVSDTSCTFPSGDGIFWKHWIQTKDGQCGSPLVSTRDGFIVGIHSASNFTNTNNYFTSVPKNFMELLTNQEAQQWVSGWRLNADSVLWGGHKVFMVKPEEPFQPVKEATQL [N52C], the “area with substrate ENLYAQS” value came out at 0.0667, the “area with substrate ENLYCQS” value came to 0.0615, the “area with substrate ENLYDQS” value was found to be 0.0603 and the “area with substrate ENLYEQS” value is 0.0593. Further, the “area with substrate ENLYGQS” value stood at 0.0632, the “area with substrate ENLYHQS” value was found to be 0.0663, the “area with substrate ENLYIQS” value amounted to 0.0574 and the “area with substrate ENLYKQS” value stood at 0.0534. The “area with substrate ENLYLQS” value was 0.0564, the “area with substrate ENLYMQS” value was 0.0635, the “area with substrate ENLYNQS” value is 0.0741 and the “area with substrate ENLYPQS” value stood at 0.0706. The “area with substrate ENLYQQS” value came out at 0.0505, the “area with substrate ENLYRQS” value came to 0.0571, the “area with substrate ENLYSQS” value was 0.0541 and the “area with substrate ENLYTQS” value stood at 0.0731. The “area with substrate ENLYVQS” value turned out to be 0.0792 and the “area with substrate ENLYWQS” value was 0.049.
For the variant MGESLFKGPRDYNPISSSICHLTNESDGHTTSLYGIGFGPFIITNKHLARRNNGTLVVQSLHGVFKVKDTTTLQQHLVDGRDMIIIRMPKDFPPFPQKLKFREPQREERICLVTTNFQTKSMSSMVSDTSCTFPSGDGIFWKHWIQTKDGQCGSPLVSTRDGFIVGIHSASNFTNTNNYFTSVPKNFMELLTNQEAQQWVSGWRLNADSVLWGGHKVFMVKPEEPFQPVKEATQL [F49A], the “area with substrate ENLYAQS” value stood at 0.0786, the “area with substrate ENLYDQS” value turned out to be 0.0491, the “area with substrate ENLYEQS” value was found to be 0.0574 and the “area with substrate ENLYGQS” value was found to be 0.065. The “area with substrate ENLYHQS” value is 0.0579, the “area with substrate ENLYKQS” value came out at 0.0606, the “area with substrate ENLYMQS” value came out at 0.0696 and the “area with substrate ENLYPQS” value worked out at 0.0543. Further, the “area with substrate ENLYRQS” value was 0.0548, the “area with substrate ENLYSQS” value stood at 0.0494, the “area with substrate ENLYTQS” value was 0.0548 and the “area with substrate ENLYVQS” value worked out at 0.0522. Further, the “area with substrate ENLYWQS” value is 0.0528 and the “area with substrate ENLYYQS” value is 0.0608.
With MGESLFKGPRDYNPISSSICHLTNESDGHTTSLYGIGFGPFIITNKHLMRRNNGTLVVQSLHGVFKVKDTTTLQQHLVDGRDMIIIRMPKDFPPFPQKLKFREPQREERICLVTTNFQTKSMSSMVSDTSCTFPSGDGIFWKHWIQTKDGQCGSPLVSTRDGFIVGIHSASNFTNTNNYFTSVPKNFMELLTNQEAQQWVSGWRLNADSVLWGGHKVFMVKPEEPFQPVKEATQL [F49M], the “area with substrate ENLYAQS” value was 0.0605, the “area with substrate ENLYCQS” value worked out at 0.0745, the “area with substrate ENLYDQS” value turned out to be 0.0576 and the “area with substrate ENLYEQS” value was 0.0726. The “area with substrate ENLYGQS” value amounted to 0.0537, the “area with substrate ENLYHQS” value was determined as 0.0615, the “area with substrate ENLYIQS” value amounted to 0.0634 and the “area with substrate ENLYKQS” value is 0.0617. In addition, the “area with substrate ENLYLQS” value was 0.057, the “area with substrate ENLYMQS” value was determined as 0.0446, the “area with substrate ENLYNQS” value turned out to be 0.0285 and the “area with substrate ENLYPQS” value was found to be 0.0544. The “area with substrate ENLYRQS” value was 0.0621, the “area with substrate ENLYSQS” value came out at 0.0587, the “area with substrate ENLYTQS” value worked out at 0.0652 and the “area with substrate ENLYVQS” value stood at 0.0816. Moreover, the “area with substrate ENLYWQS” value was 0.0603 and the “area with substrate ENLYYQS” value turned out to be 0.0663.
For the variant MGESLFKGPRDYNPISSSICHLTNESDGHTTSLYGIGFGPFIATNKHLFRRNNGTLVVQSLHGVFKVKDTTTLQQHLVDGRDMIIIRMPKDFPPFPQKLKFREPQREERICLVTTNFQTKSMSSMVSDTSCTFPSGDGIFWKHWIQTKDGQCGSPLVSTRDGFIVGIHSASNFTNTNNYFTSVPKNFMELLTNQEAQQWVSGWRLNADSVLWGGHKVFMVKPEEPFQPVKEATQL [I43A], the “area with substrate ENLYAQS” value is 0.0732, the “area with substrate ENLYDQS” value was 0.0423, the “area with substrate ENLYEQS” value amounted to 0.06 and the “area with substrate ENLYHQS” value turned out to be 0.0637. Besides, the “area with substrate ENLYIQS” value was found to be 0.0763, the “area with substrate ENLYKQS” value came to 0.0732, the “area with substrate ENLYLQS” value amounted to 0.0774 and the “area with substrate ENLYMQS” value came out at 0.0744. In addition, the “area with substrate ENLYNQS” value is 0.058, the “area with substrate ENLYPQS” value was determined as 0.0647, the “area with substrate ENLYQQS” value was determined as 0.0571 and the “area with substrate ENLYRQS” value turned out to be 0.0556. Further, the “area with substrate ENLYSQS” value was determined as 0.0576, the “area with substrate ENLYVQS” value is 0.0993, the “area with substrate ENLYWQS” value was 0.0601 and the “area with substrate ENLYYQS” value amounted to 0.0495.
